Measurements taken from PubChem BioAssay AID651820 (National Center for Advancing Translational Sciences (NCATS), 2012).
Hit rate of the full screen: of about 340,000 compounds, about 12,000 (3.5%) were called active. This list was built around the results that the source calls inconclusive (neither active nor inactive); the mix of calls is not that of the screen. The call rests on the fitted dose curve; in most records, active means well fitted inhibition curve with a large enough effect; inconclusive means small, poorly fitted or top-dose-only effect, or another doubt; inactive means no such curve, though single readings can be large or run the other way. Potencies of inconclusive entries are left out as doubtful fits.

Assay: qHTS Assay for Inhibitors of Hepatitis C Virus (HCV)
Conditions: Huh7.5.1 HCVcc-Cre (HCVcc is cell-culture hepatitis C virus) infection, luciferase reporter, 44 h; activity change, negative = inhibition: at 41.8 µM (top of the series) unless noted
Procedure, shortened: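 After 44 h co-culture of compound, cells and HCVcc-Cre (~0.5 moi), substrate is added for 15 min at room temperature and luciferase measured over 15 sec. Cells were seeded at 1,000/well and pre-cultured 4 h.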
On the % scale 0 is the no-effect control and ±100 the full control effect; potency means the concentration at half of the fitted maximal effect; tags describe the fitted curve by direction and shape.

Structure (SMILES)	Potency	activity change, negative = inhibition
COCCCNC(=S)N1CCN(c2nc(C)nc3sc4c(c23)CCCC4)CC1	active: 10 µM	
Cc1ccc(NC(=O)C2CCN(S(=O)(=O)c3c(C)noc3/C=C/c3ccco3)CC2)nc1		inactive: 0.601%
O=C(CSc1nnnn1-c1ccc2c(c1)CCC2)Nc1ccc2c(c1)OCCO2	inconclusive [inhibitor, single point]	
CCOc1ccc(N2CSC3=C(C#N)C(c4ccco4)CC(=O)N3C2)cc1 (stereo not given)		inactive: 0.136%
COc1cccc(CN(C)CC(=O)NCc2ccccc2Cl)c1	inconclusive [inhibitor, single point]	
CCCCCCSc1cc(C)nc2ncnn12	inconclusive [inhibitor, single point]	
CCOC(=O)N1CCN(C(=O)COC(=O)C2CCN(S(=O)(=O)c3c(Cl)cccc3Cl)CC2)CC1		inactive: 17.7%
CCCN1CCN(CCCNC(=O)C(CC)n2nc(C)c3sc4ccccc4c3c2=O)CC1 (stereo not given)	inconclusive [inhibitor, full curve, poor fit]	
O=c1oc2cc(Oc3ccc(C(F)(F)F)cc3[N+](=O)[O-])ccc2c2c1CCC2	inconclusive [inhibitor, partial curve, poor fit]	
O=C(Nc1ccc(Cl)cc1)[C@@H]1[C@@H]2C(=O)N(c3ccc4ccccc4c3)C(=O)[C@@H]2[C@H]2C=CC=NN21	inconclusive [inhibitor, single point]	
C=CCn1c(SCC(=O)c2c(N)n(C3CC3)c(=O)[nH]c2=O)nnc1-c1ccccc1OC		inactive: 17.7%
CCNc1ccc(S(=O)(=O)N(C)C)cc1NCC(=O)Nc1ccccc1F	inconclusive [inhibitor, single point]	
O=C(COC(=O)c1ccccc1-c1nc2ccccc2s1)Nc1ccccc1C(F)(F)F		inactive: 0.217%
Cc1ccc2sc(N(CCCN(C)C)C(=O)CCS(=O)(=O)c3ccccc3)nc2c1C	inconclusive [inhibitor, single point]	
CC(NC(=O)CCC(=O)NC(C)C1COc2ccccc2O1)C1COc2ccccc2O1 (stereo not given)	inconclusive [inhibitor, partial curve]	
C/C(CCc1oc2ccc(Br)cc2c1-c1ccc(C)o1)=N/O	inconclusive [inhibitor, partial curve]	
O=C(N/N=C\c1ccc(Cl)cc1)c1sccc1-n1cccc1		inactive: 7.69%
Cc1ccc(C(=O)COc2ccc3c(C)cc(=O)oc3c2)cc1	inconclusive [inhibitor, partial curve, poor fit]	
Cc1ccc(C)c(N2CCN(S(=O)(=O)c3ccc4c(c3)CC(C)N4C(=O)C3CC3)CC2)c1 (stereo not given)	inconclusive [inhibitor, single point]	
CCc1sc(C(=O)Nc2ccc3nc(C)sc3c2)cc1C	inconclusive [inhibitor, partial curve]	
Cc1cc(=O)nc2c3ccccc3n(C(C)C(=O)Nc3c(F)c(F)c(F)c(F)c3F)n12 (stereo not given)	inconclusive [inhibitor, full curve]	
COc1cccc(C2C(C#N)=C(N)OC3=C2C(=O)CC(c2ccco2)C3)c1OCc1ccc(F)cc1 (stereo not given)	inconclusive [inhibitor, single point]	
CNC(=O)c1c(NC(=O)CS(=O)(=O)c2ccccc2)sc(C)c1C	inconclusive [inhibitor, full curve, poor fit]	
Cc1sc(NC(=S)NC(=O)CCc2ccccc2)c(C(N)=O)c1C	inconclusive [inhibitor, partial curve]	

Structure (SMILES)	Potency	activity change, negative = inhibition
O=C(Cc1cccc(NC(=O)C2CCCN(C(=O)CCc3ccccc3)C2)c1)Nc1cccc(C(=O)N2CCCCC2)c1 (stereo not given)	active: 4.47 µM	
Cc1ccccc1NC(=O)c1cc(N)ccc1N1CCCCC1		inactive: -9.1%
COc1ccccc1N1CCN(C(=O)CSc2nc(C)c(Cc3ccccc3)c(=O)[nH]2)CC1	inconclusive [inhibitor, partial curve]	
CCn1c(C2CC(=O)N(c3ccc(C)c(C)c3)C2)nc2ccccc21 (stereo not given)	inconclusive [inhibitor, single point]	
CCc1ccc(Nc2n[n+](-c3ccccc3)c(-c3cccc(C)c3)s2)cc1	active: 31.6 µM	
CN1CCN(CCCNC(=O)c2ccc3c(Cl)c4c(nc3c2)CCCC4)CC1	active: 10 µM	
CCc1ccc(N2CCN(C(=O)c3ccc(OC)c(OC)c3)CC2)cc1	inconclusive [inhibitor, single point]	
CCc1nccn1CCC(=O)N1CCCC(N2CCN(c3ccccc3C)CC2)C1 (stereo not given)	inconclusive [inhibitor, single point]	
CCN(CC)Cc1cc2[nH]c3c4ccc(Cl)cc4ncc3c2cc1OC	inconclusive [inhibitor, single point]	
CCc1cccc(N(C(=O)c2csnn2)C(C(=O)NC2CCCCC2)c2ccncc2)c1 (stereo not given)		inactive: 6.3%
O=C(/C=C/Nc1ccc(F)c(F)c1)c1ccc(Br)cc1	inconclusive [inhibitor, single point]	
CN(C)C(=O)N1CCN(S(=O)(=O)c2ccc3ccccc3c2)CC1	inconclusive [inhibitor, partial curve]	
C=CCn1c(SCC(=O)N2CCN(c3ccccc3)CC2)nnc1-c1ccco1	inconclusive [inhibitor, single point]	
COc1ccc(C=C2C=C(C(C)(C)C)C(=O)C(C(C)(C)C)=C2)cc1OC	inconclusive [inhibitor, single point]	
Cc1ccc(C(=O)NC2CC(C)(C)NC(C)(C)C2)cc1Cl		inactive: -1.61%
O=C(N/N=C/c1ccc(-c2ccc([N+](=O)[O-])cc2)o1)C(O)c1ccccc1 (stereo not given)	inconclusive [inhibitor, partial curve]	
CC(=O)Cc1nsc(NC(=O)c2ccc(Br)o2)n1		inactive: 12.6%
Cc1ccc(C(=O)N2CCC(C(=O)c3ccc(F)cc3)CC2)cc1	inconclusive [inhibitor, single point]	
CC1Cc2ccccc2N1C(=O)CSc1nnnn1Cc1ccccc1 (stereo not given)	inconclusive [inhibitor, partial curve]	
C=CC(=O)N=c1sc2ccccc2n1-c1ccccc1	active: 11.2 µM	
CC(=O)c1ccc(NC(=O)c2ccc(CNc3c(N4CCOCC4)c(=O)c3=O)cc2)cc1		inactive: -4.99%
O=C(CCN1CCCCC1)c1cccc(Cl)c1		inactive: 3.57%
Cc1[nH]n(-c2ccccc2)c(=O)c1/C=N/NC(=O)c1cccc(F)c1	active: 11.2 µM	
Cc1ccccc1OCC(=O)NC(C)c1ccccc1 (stereo not given)	inconclusive [inhibitor, single point]	

Structure (SMILES)	Potency	activity change, negative = inhibition
CC1=CC(=O)[C@@H](OC(=O)Nc2ccc(C)cc2)[C@@H](c2ccccc2Br)N1C	inconclusive [inhibitor, single point]	
O=C(NCCc1ccc(Cl)cc1)c1cc(-c2ccccn2)nc2ccccc12	inconclusive [inhibitor, single point]	
NC(=O)c1cc(S(=O)(=O)Nc2cccc(Cl)c2)cs1		inactive: 12.9%
COc1ccc(/C=N/NC(=O)c2ccoc2C)cc1COc1c(C)cccc1C	inconclusive [inhibitor, full curve]	
COc1cc([N+](=O)[O-])ccc1NC(=O)C1C2C=CC(C2)C1C(=O)O (stereo not given)		inactive: 18.9%
CCc1nc(Sc2nc(C)cc(C)n2)c2oc3ccccc3c2n1	inconclusive [inhibitor, full curve]	
COc1ccc(Nc2nc(N)nc(CSc3nnc(C)s3)n2)cc1		inactive: 6.93%
CCC1(CC)NC(=O)N(CC(=O)Nc2cccc3ccccc23)C1=O		inactive: 22.7%
O=C(Nc1cccc(Br)c1)c1cccc(OC(=S)N2CCOCC2)c1	inconclusive [inhibitor, partial curve, poor fit]	
COc1ccc(N2CCN(c3ccc(S(=O)(=O)N(C(C)C)C(C)C)cn3)CC2)cc1		inactive: -10.3%
CNc1nc(Nc2ccc(C)c(Cl)c2)c2cnn(C)c2n1	inconclusive [inhibitor, partial curve]	
CCN(CCNC(=O)c1cc(C)nn1-c1ccccc1)c1ccccc1	inconclusive [inhibitor, partial curve]	
Cc1cc(Cl)ccc1OCC(=O)Nc1ccc(CN2CCOCC2)cc1	inconclusive [inhibitor, single point]	
CCOC(=O)c1sc(NC(=O)CN2CCCC2)c(C(=O)OCC)c1C		inactive: -0.955%
CCCN1CN=C(Nc2nc3ccccc3o2)NC1		inactive: 7.81%
Cc1ccc(C)n1-c1ccc(C(=O)NN)s1	inconclusive [inhibitor, single point]	
COc1nn(CC(=O)N2N=C(C)CC2(O)C(F)(F)F)cc1[N+](=O)[O-] (stereo not given)		inactive: 14.9%
CCOC(=O)c1cnc2c(C)c(Cl)ccc2c1N1CCN(CC)CC1	inconclusive [inhibitor, single point]	
COc1ccccc1C=NNC(=O)NN=Cc1ccccc1OC	inconclusive [inhibitor, single point]	
CCCc1nc2c(o1)CC(CC(C)SCC)CC2=O (stereo not given)	inconclusive [inhibitor, single point]	
N=c1nc2n(cc1F)C1OC(CO)C(O)C1O2 (stereo not given)	inconclusive [inhibitor, full curve]	
CC(C)n1cnc2c(NCc3ccccc3)cc(N[C@H](C)CO)cc21	inconclusive [inhibitor, full curve]	
